The record followed here is PMC7819943, “Rice protein-binding microarrays: a tool to detect cis-acting elements near promoter regions in rice”.

This is one part of the list.

For the assay, the target named is T1, OsWOX13 (Oryza sativa, UniProt Q5QMM3 1-267).
T1 sequence: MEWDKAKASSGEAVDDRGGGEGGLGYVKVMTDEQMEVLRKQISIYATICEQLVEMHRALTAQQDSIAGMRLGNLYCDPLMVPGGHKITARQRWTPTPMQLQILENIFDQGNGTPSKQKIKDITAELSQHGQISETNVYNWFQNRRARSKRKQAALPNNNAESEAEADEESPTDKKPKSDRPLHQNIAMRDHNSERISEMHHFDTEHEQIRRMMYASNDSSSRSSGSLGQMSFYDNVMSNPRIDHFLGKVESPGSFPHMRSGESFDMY
Briefly: protein-binding microarray (RPBM); PBS, 2% BSA, 51.3 ng/ul salmon testes DNA, 50 uM zinc acetate, 200 nM TF, 25 C, 1 h; high values mean tight binding. The settings on record: protein: recombinant; tags: N-terminal polyhistidine and DsRed monomer fusion (pET32a); label: CyDye5-dUTP incorporated in the synthesized complementary strand; 3' TTTTT single-stranded linker to array surface; dsDNA, one strand shown. In outline: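 In PBS with 2% BSA, salmon testes DNA and 50 µM zinc acetate, 200 nM protein was incubated on a custom Agilent array at 25 °C for 1 h and then washed off. The array had been made double-stranded by primer extension with Cy5-dUTP and blocked with 2% BSA. The proteins were transcription factors fused N-terminally to polyhistidine and DsRed, expressed in E. coli BL21-CodonPlus and purified on Ni–NTA. The binding signal is per-feature fluorescence intensity (arbitrary units) from an Axon 4000B scanner.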
Consider “ATTAATTGTCGATCATGCTATTGTCGTGGATTAGTCAAGCCGGAGTCACCTAGTGCAG”, for which the binding signal was 37400 fluorescence intensity (a.u.). On to “TCCTAATTTCCTCAACCTACAGGGTCACATGCAACAGACACGGAGTCACCTAGTGCAG”, for which the binding signal was 3440 fluorescence intensity (a.u.).

Regarding “CTCTAACATTATCAAAATTGGGTACGGTTAATTTAGAGCACGGAGTCACCTAGTGCAG”, the binding signal was 6190 fluorescence intensity (a.u.). In the case of “TATGATTGATATCCACGAATTGAAGAAGAAGTTGCATTGCCGGAGTCACCTAGTGCAG”, the binding signal is 55300 fluorescence intensity (a.u.). For the sequence “GACGGATTAATTATGCTGAATAAATTCGTCAAGCAGTTTCCGGAGTCACCTAGTGCAG”, the binding signal is 16200 fluorescence intensity (a.u.). Take “ATTTAAATTTCCATCCTTAAATTTGAAGGTGATTTTGAGGCGGAGTCACCTAGTGCAG”: the binding signal is 21500 fluorescence intensity (a.u.). In the case of “TAGTTATTTTAATTTATCATTAAAATGTTGTAGTCATGAACGGAGTCACCTAGTGCAG” it was 4460 fluorescence intensity (a.u.). Take “GATTTAATTACAACGAATACAACAGTGTGATCGGATTGTACGGAGTCACCTAGTGCAG”: the binding signal was 13200 fluorescence intensity (a.u.). As for “ATCTAAATTTCATCTGCTCTTGTTTATGCATGTAACCAAGCGGAGTCACCTAGTGCAG”, the binding signal is 3510 fluorescence intensity (a.u.). In the case of “CCTGATGGGCCTAAACTCGAAAATTAATGGGCCTAACTTGCGGAGTCACCTAGTGCAG” it was 22300 fluorescence intensity (a.u.). For the sequence “AATTAAATGGTGAAGGGTTATGATTGGGAAGAGAATGCCGCGGAGTCACCTAGTGCAG”, the binding signal is 11300 fluorescence intensity (a.u.).

For the sequence “GGACAGATGTAATTTAATATTATATACAGACATAAATGTACGGAGTCACCTAGTGCAG”, the binding signal is 4960 fluorescence intensity (a.u.).

For the sequence “CTACTGTACTAATTAATTTCAATCACAATCCCGTCTTGTGCGGAGTCACCTAGTGCAG”, the binding signal was 34300 fluorescence intensity (a.u.).

Consider “CTTCCTCATCATAGGATGATTGATTACCTAAGGAGCTCCCCGGAGTCACCTAGTGCAG”, for which the binding signal was 31900 fluorescence intensity (a.u.).

For the sequence “ACTATGATTATTATAGGTAACATATAAATTATTAGTCAGGCGGAGTCACCTAGTGCAG”, the binding signal was 31900 fluorescence intensity (a.u.). For “AAAGGAATTATGGTCTAATTTTAGTGAAGGTGAAAAGTAGCGGAGTCACCTAGTGCAG”, the binding signal was 3510 fluorescence intensity (a.u.). Turning to “AGAGGGAATTGCTAGTCAATTGTGGGTGCTTAATTTGTGCCGGAGTCACCTAGTGCAG”, the binding signal was 7720 fluorescence intensity (a.u.). For the sequence “GTTTCTAACTGAAGATGGATTGAAGAGTGTTGTTGATTCCCGGAGTCACCTAGTGCAG”, the binding signal is 10800 fluorescence intensity (a.u.). In the case of “TTAGATTTCAATCGCTTTTGATTTGAGGGTCATGAAGTGACGGAGTCACCTAGTGCAG” it was 7670 fluorescence intensity (a.u.). For the sequence “GTTGATTTGTAAACGCACTGAACGGTTTATATGATGTGCTCGGAGTCACCTAGTGCAG”, the binding signal is 44000 fluorescence intensity (a.u.). In the case of “GAGATGGATGATTGCACTCCACTAAATAGAAGTTTGGTGGCGGAGTCACCTAGTGCAG”, the binding signal was 18500 fluorescence intensity (a.u.). Turning to “CGAAATAAAATTATATTATATTGTTAATATAATGGGTGAACGGAGTCACCTAGTGCAG”, the binding signal was 13000 fluorescence intensity (a.u.). In the case of “GGCCGTTACACCTCCTGTAGCTAGCTGTAGGCACCTCAGCCGGAGTCACCTAGTGCAG”, the binding signal was 24700 fluorescence intensity (a.u.). Regarding “TAGCTGATAGACGGGTCGCCTGGATATTTTCTCCGTCGATCGGAGTCACCTAGTGCAG”, the binding signal was 16700 fluorescence intensity (a.u.). Take “CCTAATTGCTACTGATCACCGAGTAGCTCGTTTCACCTACCGGAGTCACCTAGTGCAG”: the binding signal was 45500 fluorescence intensity (a.u.). Take “CTGAGATGCTAATTGTGTGTACACTGTTGAGCACATTTGACGGAGTCACCTAGTGCAG”: the binding signal is 3680 fluorescence intensity (a.u.). Consider “AACTTGATCATTACAACAATTAAGTTGCCTCTTGAATCCACGGAGTCACCTAGTGCAG”, for which the binding signal is 5110 fluorescence intensity (a.u.). On to “ATAATATAATTACATTTTAATTATAATGTATTTATATTAACGGAGTCACCTAGTGCAG”, for which the binding signal was 28100 fluorescence intensity (a.u.). On to “AGATCTGATTGATATTGATCCATCGCCGATCGATTGATCACGGAGTCACCTAGTGCAG”, for which the binding signal was 53800 fluorescence intensity (a.u.).

For the sequence “ACTTCTACATAATTACTGTCTTTGTTGAGGGGTAAACTACCGGAGTCACCTAGTGCAG”, the binding signal was 8280 fluorescence intensity (a.u.). In the case of “TACATATGTAATTTGCAATTCACATGGTAAATACACTAAACGGAGTCACCTAGTGCAG”, the binding signal was 5500 fluorescence intensity (a.u.). Consider “CCGCTCTTGATTAGGTCGATGGGGTAATTTCTCTGTGTTTCGGAGTCACCTAGTGCAG”, for which the binding signal is 18200 fluorescence intensity (a.u.). With “TTATGACTGAGGTTAATTAAATAAAAGAGAAGCAAGTAGCCGGAGTCACCTAGTGCAG”, the binding signal is 24200 fluorescence intensity (a.u.). Take “AGGGAATTGACCAGCGTTTAAATGTGGCTGTTCTTGCCTTCGGAGTCACCTAGTGCAG”: the binding signal was 10600 fluorescence intensity (a.u.).

Regarding “ATATATATATATATATATATATATATATCATCGAAAATGTCGGAGTCACCTAGTGCAG”, the binding signal is 5140 fluorescence intensity (a.u.).

As to “ACTATAAGATTGAGAGTTTCATATGCAAGTCAACGATGTTCGGAGTCACCTAGTGCAG”, the binding signal is 7630 fluorescence intensity (a.u.).

Consider “TTTAACGTGGATCTAAACAGACGATCAAACAACATCGACGCGGAGTCACCTAGTGCAG”, for which the binding signal was 6200 fluorescence intensity (a.u.). Consider “ACGCTAATTATCCTCCACCACGAGTCCCCACCCGCCCAGACGGAGTCACCTAGTGCAG”, for which the binding signal is 24600 fluorescence intensity (a.u.). As to “TACTAATTTTGAATTTAGAGCTATTAACCAATAAATTGTTCGGAGTCACCTAGTGCAG”, the binding signal is 12200 fluorescence intensity (a.u.). In the case of “TCCCCTTGATTGATTGATCACCATTATTATAACATCCTCTCGGAGTCACCTAGTGCAG” it was 64400 fluorescence intensity (a.u.). In the case of “GCCCACAAATTAAACCGAGAGAAATTAAGAACTTAAGTGTCGGAGTCACCTAGTGCAG” it was 3380 fluorescence intensity (a.u.). As to “CTATAAAATTAATTATTAGATCAAACTTAATATTTTCCAACGGAGTCACCTAGTGCAG”, the binding signal is 23400 fluorescence intensity (a.u.). As to “CCTCTCCTTAATTTAGACATAAACTTAATTAGCTATGCCGCGGAGTCACCTAGTGCAG”, the binding signal is 35600 fluorescence intensity (a.u.). As to “AAACATTAATTAATACCATAATAGTTAGGTGACAATTGACCGGAGTCACCTAGTGCAG”, the binding signal is 27100 fluorescence intensity (a.u.). Take “ATAAATTGGACGGCTGAGATACTATCTGCTATAGGAAGCGCGGAGTCACCTAGTGCAG”: the binding signal was 31900 fluorescence intensity (a.u.). On to “GGCAAGTGATTATAGAAAAGGGGATCGCTGATCAAGGATACGGAGTCACCTAGTGCAG”, for which the binding signal was 5180 fluorescence intensity (a.u.). With “GAAATTTGACAAGCAAGAACCAATCAACTAAATCAATCCACGGAGTCACCTAGTGCAG”, the binding signal was 14200 fluorescence intensity (a.u.). Consider “CTTGATTTTGAAGTTGATTTTGAAATGCTTTTAACGTAATCGGAGTCACCTAGTGCAG”, for which the binding signal is 33400 fluorescence intensity (a.u.). For the sequence “ATGTCATTTTAAAGTTTAATTAATTAGATAATTACCTTCTCGGAGTCACCTAGTGCAG”, the binding signal was 17500 fluorescence intensity (a.u.). In the case of “TGTTTAAATGGATGATAAGTAGAATTACTTATCCTTGTTCCGGAGTCACCTAGTGCAG” it was 6280 fluorescence intensity (a.u.). Take “CAACCGAAATGACAGAGGATTGACTACACGCCTATACTATCGGAGTCACCTAGTGCAG”: the binding signal was 5590 fluorescence intensity (a.u.). In the case of “ATCAATCTCAATGGTTAAATGATTGATCTATCATAATTCACGGAGTCACCTAGTGCAG” it was 22100 fluorescence intensity (a.u.); in that of “TAGTTTAACATAATTAATAATTAATTATACCTTGAGTTAACGGAGTCACCTAGTGCAG”, 20100 fluorescence intensity (a.u.); in that of “TCAGATCTATTCAATCAGATGATGTTCTTGCCTGATATTCCGGAGTCACCTAGTGCAG”, 9610 fluorescence intensity (a.u.).
